According to the supplement of paper PMC8728848:
The other results are listed elsewhere or left out.

What was measured:
Assay in all cases: glycan array binding signal (z-score within array); higher = stronger binding
Settings in all cases: glycan notation: IUPAC condensed, linker removed
[1] = target: Neu5Ac(a2-3)[GalNAc(b1-4)]Gal(b1-4)Glc
Summary of the method: (§1)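 The Consortium for Functional Glycomics database supplied 3228 glycan arrays, of which those lacking an available protein sequence were dropped. The binding signal, a within-array Z-score, was averaged across arrays of the same protein sequence and across linkers. Negative scores can be read as non-binding.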

[2] = target: Neu5Ac(a2-3)[GalNAc(b1-4)]Gal(b1-4)GlcNAc
Summary of the method: as §1

[3] = target: Neu5Ac(a2-3)[GalNAc(b1-4)]Gal(b1-4)GlcNAc(b1-3)GalNAc
Summary of the method: as §1

[4] = target: Neu5Ac(a2-3)[Neu5Ac(a2-6)]GalNAc
Summary of the method: as §1

Neu5Ac(a2-6)Gal = target: Neu5Ac(a2-6)Gal
Summary of the method: as §1

[5] = target: Neu5Ac(a2-6)Gal(b1-3)GlcNAc(b1-3)[Gal(b1-4)GlcNAc(b1-6)]Gal(b1-4)Glc
Summary of the method: as §1

Neu5Ac(a2-6)Gal(b1-4)Glc = target: Neu5Ac(a2-6)Gal(b1-4)Glc
Summary of the method: as §1

[6] = target: Neu5Ac(a2-6)Gal(b1-4)GlcNAc
Summary of the method: as §1

[7] = target: Neu5Ac(a2-6)Gal(b1-4)GlcNAc(b1-2)Man(a1-3)Man(b1-4)GlcNAc(b1-4)GlcNAc
Summary of the method: as §1

[8] = target: Neu5Ac(a2-6)Gal(b1-4)GlcNAc(b1-2)Man(a1-3)[Gal(b1-4)GlcNAc(b1-2)Man(a1-6)]Man(b1-4)GlcNAc(b1-4)GlcNAc
Summary of the method: as §1

[9] = target: Neu5Ac(a2-6)Gal(b1-4)GlcNAc(b1-2)Man(a1-3)[GlcNAc(b1-2)Man(a1-6)]Man(b1-4)GlcNAc(b1-4)GlcNAc
Summary of the method: as §1

[10] = target: Neu5Ac(a2-6)Gal(b1-4)GlcNAc(b1-2)Man(a1-3)[GlcNAc(b1-2)Man(b1-4)GlcNAc(b1-2)Man(a1-6)]Man(b1-4)GlcNAc(b1-4)GlcNAc
Summary of the method: as §1

[11] = target: Neu5Ac(a2-6)Gal(b1-4)GlcNAc(b1-2)Man(a1-3)[Man(a1-6)]Man(b1-4)GlcNAc(b1-4)GlcNAc
Summary of the method: as §1

[12] = target: Neu5Ac(a2-6)Gal(b1-4)GlcNAc(b1-2)Man(a1-3)[Neu5Ac(a2-6)Gal(b1-4)GlcNAc(b1-2)Man(a1-6)]Man(b1-4)GlcNAc(b1-4)GlcNAc
Summary of the method: as §1

[13] = target: Neu5Ac(a2-6)Gal(b1-4)GlcNAc(b1-2)Man(a1-6)Man(b1-4)GlcNAc(b1-4)GlcNAc
Summary of the method: as §1

[14] = target: Neu5Ac(a2-6)Gal(b1-4)GlcNAc(b1-2)Man(a1-6)[Gal(b1-4)GlcNAc(b1-2)Man(a1-3)]Man(b1-4)GlcNAc(b1-4)GlcNAc
Summary of the method: as §1

[15] = target: Neu5Ac(a2-6)Gal(b1-4)GlcNAc(b1-2)Man(a1-6)[GlcNAc(b1-2)Man(a1-3)]Man(b1-4)GlcNAc(b1-4)GlcNAc
Summary of the method: as §1

[16] = target: Neu5Ac(a2-6)Gal(b1-4)GlcNAc(b1-2)Man(a1-6)[Man(a1-3)]Man(b1-4)GlcNAc(b1-4)GlcNAc
Summary of the method: as §1

[17] = target: Neu5Ac(a2-6)Gal(b1-4)GlcNAc(b1-3)Gal(b1-3)GlcNAc
Summary of the method: as §1

[18] = target: Neu5Ac(a2-6)Gal(b1-4)GlcNAc(b1-3)Gal(b1-4)GlcNAc
Summary of the method: as §1

[19] = target: Neu5Ac(a2-6)Gal(b1-4)GlcNAc(b1-3)Gal(b1-4)GlcNAc(b1-3)Gal(b1-4)GlcNAc
Summary of the method: as §1

[20] = target: Neu5Ac(a2-6)Gal(b1-4)GlcNAc(b1-3)Gal(b1-4)[Fuc(a1-3)]GlcNAc(b1-3)Gal(b1-4)[Fuc(a1-3)]GlcNAc
Summary of the method: as §1

[21] = target: Neu5Ac(a2-6)Gal(b1-4)GlcNAc(b1-3)GalNAc
Summary of the method: as §1

[22] = target: Neu5Ac(a2-6)Gal(b1-4)GlcNAc6S
Summary of the method: as §1

Neu5Ac(a2-6)GalNAc = target: Neu5Ac(a2-6)GalNAc
Summary of the method: as §1

[23] = target: Neu5Ac(a2-6)GalNAc(b1-4)GlcNAc
Summary of the method: as §1

[24] = target: Neu5Ac(a2-6)GlcNAc(b1-4)GlcNAc
Summary of the method: as §1

[25] = target: Neu5Ac(a2-6)GlcNAc(b1-4)GlcNAc(b1-4)GlcNAc
Summary of the method: as §1

Neu5Ac(a2-8)Neu5Ac = target: Neu5Ac(a2-8)Neu5Ac
Summary of the method: as §1

[26] = target: Neu5Ac(a2-8)Neu5Ac(a2-3)Gal(b1-3)GalNAc(b1-4)[Neu5Ac(a2-8)Neu5Ac(a2-3)]Gal(b1-4)Glc
Summary of the method: as §1

[27] = target: Neu5Ac(a2-8)Neu5Ac(a2-3)Gal(b1-4)Glc
Summary of the method: as §1

[28] = target: Neu5Ac(a2-8)Neu5Ac(a2-3)[Gal(b1-3)GalNAc(b1-4)]Gal(b1-4)Glc
Summary of the method: as §1

[29] = target: Neu5Ac(a2-8)Neu5Ac(a2-3)[GalNAc(b1-4)]Gal(b1-4)Glc
Summary of the method: as §1

[30] = target: Neu5Ac(a2-8)Neu5Ac(a2-8)Neu5Ac
Summary of the method: as §1

[31] = target: Neu5Ac(a2-8)Neu5Ac(a2-8)Neu5Ac(a2-3)Gal(b1-4)Glc
Summary of the method: as §1

[32] = target: Neu5Ac(a2-8)Neu5Ac(a2-8)Neu5Ac(a2-3)[GalNAc(b1-4)]Gal(b1-4)Glc
Summary of the method: as §1

[33] = target: Neu5Ac(a2-8)Neu5Ac(a2-8)Neu5Ac(a2-8)Neu5Ac(a2-3)[GalNAc(b1-4)]Gal(b1-4)Glc
Summary of the method: as §1

[34] = target: Neu5Ac(b2-6)Gal(b1-4)GlcNAc
Summary of the method: as §1

Neu5Ac(b2-6)GalNAc = target: Neu5Ac(b2-6)GalNAc
Summary of the method: as §1

[35] = target: Neu5Ac9Ac(a2-3)Gal(b1-3)GlcNAc
Summary of the method: as §1

[36] = target: Neu5Ac9Ac(a2-3)Gal(b1-4)GlcNAc
Summary of the method: as §1

[37] = target: Neu5Ac9Ac(a2-6)Gal(b1-4)GlcNAc
Summary of the method: as §1

[38] = target: Neu5Gc(a2-3)Gal(b1-3)GlcNAc
Summary of the method: as §1

[39] = target: Neu5Gc(a2-3)Gal(b1-3)[Fuc(a1-4)]GlcNAc
Summary of the method: as §1

Neu5Gc(a2-3)Gal(b1-4)Glc = target: Neu5Gc(a2-3)Gal(b1-4)Glc
Summary of the method: as §1

[40] = target: Neu5Gc(a2-3)Gal(b1-4)GlcNAc
Summary of the method: as §1

[41] = target: Neu5Gc(a2-3)Gal(b1-4)[Fuc(a1-3)]GlcNAc
Summary of the method: as §1

[42] = target: Neu5Gc(a2-6)Gal(b1-4)GlcNAc
Summary of the method: as §1

Neu5Gc(a2-6)GalNAc = target: Neu5Gc(a2-6)GalNAc
Summary of the method: as §1

[43] = target: Neu5Gc(b2-6)Gal(b1-4)GlcNAc
Summary of the method: as §1

B1: 3FTT (Staphylococcus aureus), Q5HCZ5 (protein)
chain: MTEKEKMLAEKWYDANFDQYLINERARAKDICFELNHTRPSATNKRKELIDQLFQTTTDNVSISIPFDTDYGWNVKLGKNVYVNTNCYFMDGGQITIGDNVFIGPNCGFYTATHPLNFHHRNEGFEKAGPIHIGSNTWFGGHVAVLPGVTIGEGSVIGAGSVVTKDIPPHSLAVGNPCKVVRKIDNDLPSETLNDETIK
- glycan array binding signal (z-score) [1]: -0.16
- glycan array binding signal (z-score) [2]: -0.255
- glycan array binding signal (z-score) [3]: 0.287
- glycan array binding signal (z-score) [4]: 0.223
- glycan array binding signal (z-score) (Neu5Ac(a2-6)Gal): -0.155
- glycan array binding signal (z-score) [5]: -0.068
- glycan array binding signal (z-score) (Neu5Ac(a2-6)Gal(b1-4)Glc): -0.14
- glycan array binding signal (z-score) [6]: -0.134
- glycan array binding signal (z-score) [7]: 0.1
- glycan array binding signal (z-score) [8]: -0.14
- glycan array binding signal (z-score) [9]: -0.034
- glycan array binding signal (z-score) [10]: 0.045
- glycan array binding signal (z-score) [11]: -0.124
- glycan array binding signal (z-score) [12]: -0.133
- glycan array binding signal (z-score) [13]: 0.215
- glycan array binding signal (z-score) [14]: -0.03
- glycan array binding signal (z-score) [15]: -0.162
- glycan array binding signal (z-score) [16]: -0.226
- glycan array binding signal (z-score) [17]: -0.076
- glycan array binding signal (z-score) [18]: 0.055
- glycan array binding signal (z-score) [19]: 0.007
- glycan array binding signal (z-score) [20]: -0.129
- glycan array binding signal (z-score) [21]: -0.283
- glycan array binding signal (z-score) [22]: -0.095
- glycan array binding signal (z-score) (Neu5Ac(a2-6)GalNAc): -0.035
- glycan array binding signal (z-score) [23]: -0.14
- glycan array binding signal (z-score) [24]: 0.079
- glycan array binding signal (z-score) [25]: -0.123
- glycan array binding signal (z-score) (Neu5Ac(a2-8)Neu5Ac): 0.034
- glycan array binding signal (z-score) [26]: 0.117
- glycan array binding signal (z-score) [27]: -0.237
- glycan array binding signal (z-score) [28]: 0.044
- glycan array binding signal (z-score) [29]: -0.099
- glycan array binding signal (z-score) [30]: -0.127
- glycan array binding signal (z-score) [31]: 0.056
- glycan array binding signal (z-score) [32]: -0.275
- glycan array binding signal (z-score) [33]: 0.128
- glycan array binding signal (z-score) [34]: -0.255
- glycan array binding signal (z-score) (Neu5Ac(b2-6)GalNAc): 0.053
- glycan array binding signal (z-score) [35]: -0.153
- glycan array binding signal (z-score) [36]: 0.081
- glycan array binding signal (z-score) [37]: -0.038
- glycan array binding signal (z-score) [38]: -0.371
- glycan array binding signal (z-score) [39]: -0.13
- glycan array binding signal (z-score) (Neu5Gc(a2-3)Gal(b1-4)Glc): -0.002
- glycan array binding signal (z-score) [40]: -0.145
- glycan array binding signal (z-score) [41]: -0.082
- glycan array binding signal (z-score) [42]: -0.283
- glycan array binding signal (z-score) (Neu5Gc(a2-6)GalNAc): -0.027
- glycan array binding signal (z-score) [43]: -0.181
